Laboratory results: the supplement of paper PMC8728848
The list shows a part of the results.

Assays:
Test in all cases: glycan array binding signal (z-score within array); higher = stronger binding
Details in all cases: glycan notation: IUPAC condensed, linker removed
[1] = target: Neu5Ac(a2-3)Gal(b1-3)GlcNAc6S
Method in brief: (§1)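 Glycan array binding is given as a within-array Z-score, which can be read as non-binding when negative. The arrays, 3228 of them, came from the Consortium for Functional Glycomics database and were retained only where the protein sequence was available. Z-scores were averaged across arrays of the same protein sequence at different concentrations or buffers and across linkers.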

[2] = target: Neu5Ac(a2-3)Gal(b1-3)[Fuc(a1-4)]GlcNAc
Method in brief: as §1

[3] = target: Neu5Ac(a2-3)Gal(b1-3)[Fuc(a1-4)]GlcNAc(b1-3)Gal(b1-3)[Fuc(a1-4)]GlcNAc
Method in brief: as §1

[4] = target: Neu5Ac(a2-3)Gal(b1-3)[Fuc(a1-4)]GlcNAc(b1-3)Gal(b1-4)[Fuc(a1-3)]GlcNAc
Method in brief: as §1

[5] = target: Neu5Ac(a2-3)Gal(b1-3)[GlcNAc(b1-6)]GalNAc
Method in brief: as §1

[6] = target: Neu5Ac(a2-3)Gal(b1-3)[Neu5Ac(a2-6)]GalNAc
Method in brief: as §1

[7] = target: Neu5Ac(a2-3)Gal(b1-3)[Neu5Ac(a2-6)]GlcNAc(b1-3)[Fuc(a1-3)[Gal(b1-4)]GlcNAc(b1-6)]Gal(b1-4)Glc
Method in brief: as §1

[8] = target: Neu5Ac(a2-3)Gal(b1-3)]Neu5Ac(a2-3)Gal(b1-4)]GlcNAc
Method in brief: as §1

[9] = target: Neu5Ac(a2-3)Gal(b1-4)Glc
Method in brief: as §1

[10] = target: Neu5Ac(a2-3)Gal(b1-4)GlcNAc
Method in brief: as §1

[11] = target: Neu5Ac(a2-3)Gal(b1-4)GlcNAc(b1-2)Man
Method in brief: as §1

[12] = target: Neu5Ac(a2-3)Gal(b1-4)GlcNAc(b1-2)Man(a1-3)[GlcNAc(b1-4)][Neu5Ac(a2-3)Gal(b1-4)GlcNAc(b1-2)Man(a1-6)]Man(b1-4)GlcNAc(b1-4)GlcNAc
Method in brief: as §1

[13] = target: Neu5Ac(a2-3)Gal(b1-4)GlcNAc(b1-2)Man(a1-3)[Neu5Ac(a2-3)Gal(b1-4)GlcNAc(b1-2)Man(a1-6)]Man(b1-4)GlcNAc(b1-4)GlcNAc
Method in brief: as §1

[14] = target: Neu5Ac(a2-3)Gal(b1-4)GlcNAc(b1-2)Man(a1-3)[Neu5Ac(a2-3)Gal(b1-4)GlcNAc(b1-2)Man(a1-6)]Man(b1-4)GlcNAc(b1-4)[Fuc(a1-6)]GlcNAc
Method in brief: as §1

[15] = target: Neu5Ac(a2-3)Gal(b1-4)GlcNAc(b1-2)Man(a1-3)[Neu5Ac(a2-6)Gal(b1-4)GlcNAc(b1-2)Man(a1-6)]Man(b1-4)GlcNAc(b1-4)GlcNAc
Method in brief: as §1

[16] = target: Neu5Ac(a2-3)Gal(b1-4)GlcNAc(b1-2)[Neu5Ac(a2-3)Gal(b1-4)GlcNAc(b1-4)]Man(a1-3)[GlcNAc(b1-4)][Neu5Ac(a2-3)Gal(b1-4)GlcNAc(b1-2)[Neu5Ac(a2-3)Gal(b1-4)GlcNAc(b1-6)]Man(a1-6)]Man(b1-4)GlcNAc(b1-4)GlcNAc
Method in brief: as §1

[17] = target: Neu5Ac(a2-3)Gal(b1-4)GlcNAc(b1-2)[Neu5Ac(a2-3)Gal(b1-4)GlcNAc(b1-4)]Man(a1-3)[GlcNAc(b1-4)][Neu5Ac(a2-3)Gal(b1-4)GlcNAc(b1-4)Man(a1-6)]Man(b1-4)GlcNAc(b1-4)GlcNAc
Method in brief: as §1

[18] = target: Neu5Ac(a2-3)Gal(b1-4)GlcNAc(b1-2)[Neu5Ac(a2-3)Gal(b1-4)GlcNAc(b1-6)]Man(a1-6)[Neu5Ac(a2-3)Gal(b1-4)GlcNAc(b1-2)Man(a1-3)][GlcNAc(b1-4)]Man(b1-4)GlcNAc(b1-4)GlcNAc
Method in brief: as §1

[19] = target: Neu5Ac(a2-3)Gal(b1-4)GlcNAc(b1-3)Gal
Method in brief: as §1

[20] = target: Neu5Ac(a2-3)Gal(b1-4)GlcNAc(b1-3)Gal(b1-3)GlcNAc
Method in brief: as §1

[21] = target: Neu5Ac(a2-3)Gal(b1-4)GlcNAc(b1-3)Gal(b1-4)GlcNAc
Method in brief: as §1

[22] = target: Neu5Ac(a2-3)Gal(b1-4)GlcNAc(b1-3)Gal(b1-4)GlcNAc(b1-2)Man(a1-3)[Neu5Ac(a2-3)Gal(b1-4)GlcNAc(b1-3)Gal(b1-4)GlcNAc(b1-2)Man(a1-6)]Man(b1-4)GlcNAc(b1-4)GlcNAc
Method in brief: as §1

[23] = target: Neu5Ac(a2-3)Gal(b1-4)GlcNAc(b1-3)Gal(b1-4)GlcNAc(b1-3)Gal(b1-4)GlcNAc
Method in brief: as §1

[24] = target: Neu5Ac(a2-3)Gal(b1-4)GlcNAc(b1-3)Gal(b1-4)GlcNAc(b1-3)Gal(b1-4)GlcNAc(b1-2)Man(a1-3)[Neu5Ac(a2-3)Gal(b1-4)GlcNAc(b1-3)Gal(b1-4)GlcNAc(b1-3)Gal(b1-4)GlcNAc(b1-2)Man(a1-6)]GalNAc
Method in brief: as §1

[25] = target: Neu5Ac(a2-3)Gal(b1-4)GlcNAc(b1-3)Gal(b1-4)GlcNAc(b1-3)GalNAc
Method in brief: as §1

[26] = target: Neu5Ac(a2-3)Gal(b1-4)GlcNAc(b1-3)Gal(b1-4)GlcNAc(b1-3)[Neu5Ac(a2-3)Gal(b1-4)GlcNAc(b1-3)Gal(b1-4)GlcNAc(b1-6)]GalNAc
Method in brief: as §1

[27] = target: Neu5Ac(a2-3)Gal(b1-4)GlcNAc(b1-3)Gal(b1-4)GlcNAc(b1-6)[Gal(b1-3)]GalNAc
Method in brief: as §1

[28] = target: Neu5Ac(a2-3)Gal(b1-4)GlcNAc(b1-3)Gal(b1-4)[Fuc(a1-3)]GlcNAc
Method in brief: as §1

[29] = target: Neu5Ac(a2-3)Gal(b1-4)GlcNAc(b1-3)GalNAc
Method in brief: as §1

[30] = target: Neu5Ac(a2-3)Gal(b1-4)GlcNAc(b1-3)[Neu5Ac(a2-3)Gal(b1-4)GlcNAc(b1-6)]GalNAc
Method in brief: as §1

B1: SialidaseA (Arthrobacter ureafaciens) (protein)
chain: MRSNSTSAPSLVRRAATGVLTCAVSIGLLAGLGLPAQAAPTPPNSPTLPPGSFSETNLAADRTAANFFYRIPALTYLGNDVVLAAWDGRPGSAADAPNPNSIVQRRSTDGGKTWGPVQVIAAGHVADASGPRYGYSDPSYIYDAEANKVFAFFVYSKDQGFGGSQFGNDDADRNVISSAVIESSDAGVTWSQPRLITSVTKPGTSKTNPAAGDVRSNFASSGEGIQLKYGPHKGRLIQQYAGDVRQADGSNKIQAYSVYSDDHGVTWHKGANVGDRMDENKTVELSDGRVLLNSRDNANRGYRKVAVSTDGGATYGPVSQDTELPDPANNGAIARMFPNAAQGSADAKKLIFTNANSKTGRENVSARVSCDDGETWPGVRTIRSGFSAYSTVTRLADGKFGVLYEGNYTDNMPFATFDDAWLNYVCAPLAVPAVNIAPSATQEVPVTVTNQEATTLSGATATVYTPSGWSATTVPVPDVAPGASVTVTVALTAPADASGPRSLNAAFTTADGRVSQFTFTATTPVAPQVGLTITGSAPARDVAANPYQAGDVLGYTLNVKSTANVAANSVPLTGTFDSGFLPPAAPNCRYNNLAAGASYNCTTAKHTITAADMERGYFVPEATFSITSTTTPSLTKTVQFTGAAVALRDGLISADISGARTDVGRDLATRPYAAGELVPYAFTVKNTSPFVEQVVPTAGNFSPFLPAGAGNCRYLSLPAGQSYECATPRHAVTAEEVEQGFFVPDTTWEVSAAGQSTRTYRINGGEVDLLVRDAALSATVVAEWKDADGDRFASAGDPVTFTYTVGNAGNVALTGLEAPDAGISLPFLAPGDTATATREHVLTAADVAGGSLAASAFEATARNGSKEVTATAEGQPLELKVQPAQPSKEPELTVQDLEDQTPPFDLGTAFKYRTGQKVSLAGLEYGQWYYVYLNKTGYRLGWMFPTTGDTVEFILPPEVRNGRDDVVVLDKDGRRVSFDRLQVTPKGEKI
glycan array binding signal (z-score) [1]: 2.66
glycan array binding signal (z-score) [2]: 1.93
glycan array binding signal (z-score) [3]: 1.21
glycan array binding signal (z-score) [4]: 2.39
glycan array binding signal (z-score) [5]: 0.158
glycan array binding signal (z-score) [6]: 1.38
glycan array binding signal (z-score) [7]: 0.172
glycan array binding signal (z-score) [8]: 2.49
glycan array binding signal (z-score) [9]: 0.967
glycan array binding signal (z-score) [10]: 0.633
glycan array binding signal (z-score) [11]: -0.333
glycan array binding signal (z-score) [12]: 0.247
glycan array binding signal (z-score) [13]: -0.915
glycan array binding signal (z-score) [14]: 3.28
glycan array binding signal (z-score) [15]: -0.668
glycan array binding signal (z-score) [16]: 0.361
glycan array binding signal (z-score) [17]: -0.107
glycan array binding signal (z-score) [18]: 0.379
glycan array binding signal (z-score) [19]: 1.19
glycan array binding signal (z-score) [20]: 0.758
glycan array binding signal (z-score) [21]: 1.57
glycan array binding signal (z-score) [22]: 0.256
glycan array binding signal (z-score) [23]: 0.511
glycan array binding signal (z-score) [24]: 1.01
glycan array binding signal (z-score) [25]: -0.013
glycan array binding signal (z-score) [26]: 0.502
glycan array binding signal (z-score) [27]: 0.042
glycan array binding signal (z-score) [28]: 1.2
glycan array binding signal (z-score) [29]: 1.27
glycan array binding signal (z-score) [30]: 1.16
